The test system of data set [1] is IPNV strain VR-299. The data set is described as follows: Virus plaque inhibition assay. It is filed as cell-based, infectious pancreatic necrosis virus (IPNV). The following applies: CHSE-214 cells, 3 days at 15° C., N.I.= Not inhibitory; for EC50: Infectious pancreatic necrosis virus, 72 h, read-out: EC50, effective antiviral concentration required to inhibit IPNV plaque formation by 50%.

The subject of data set [2] is IPNV. The data set is described as follows: Titration of viral progeny from infected CHSE-214 cells. It is filed as cell-based, infectious pancreatic necrosis virus (IPNV). Particulars: 4 μg/ml acivicin; without compound 3.7×10^8 pfu/ml.
The test system of data set [3] is CHSE-214 cells. Description: Cytotoxic assay, cell viability by trypan blue exclusion. Particulars: 15° C., three days.
Data set [4] relates to CHSE-214 cells. The data set is described as follows: Cellular DNA synthesis, [methyl 3H] thymidine incorporation. Particulars: CHSE-214, read-out: IC50, inhibitory concentration required to reduce [methyl 3H] thymidine incorporation by 50%, CHSE-214 cells, 20 hours at 15° C.

In brackets after ≈: the same amount, converted by molar mass.

For the compound `Nc1ncnc2c1ncn2CC(O)C(=O)O` (centres unmarked) [AHPA, 3-adenine-9-yl-2-hydroxypropanoic acid], the EC50 in data set [1] worked out at 30 µg/mL (≈ 134 µM).
For `N[C@H](C(=O)O)[C@@H]1CC(Cl)=NO1` [Acivicin, L (alpha S, 5S)-alpha-amino-3-chloro-4.5-dihydro-5-isoxazolacetic acid], in data set [2], the “Titer of viral samples from cells infected in the presence of the compound” value is 4.3×10^4 pfu/ml. In addition, in data set [1], the “EC100, effective antiviral concentration required to inhibit IPNV plaque formation by 100%” value (from here on “EC100 … to inhibit IPNV plaque formation by 100%”) is 7 µg/mL and the EC50 was found to be 4 µg/mL (≈ 22.4 µM). The “CC50, cytotoxic concentration required to reduce cell viability by 50%” value in data set [3] is greater than 100 µg/mL.
Turning to `Nc1nc2c(ncn2COCCO)c(=O)[nH]1` [Acyclovir, 9-(2-hydroxyethoxymethyl) guanine], in data set [1], the “EC100 … to inhibit IPNV plaque formation by 100%” value is “N.I”.
`Nc1ncnc2c1ncn2C[C@H](O)CO` [DHPA, (S)-9-(2.3-dihydroxypropyl) adenine]: the “EC50, effective antiviral concentration required to inhibit IPNV plaque formation by 50%” value in data set [1] turned out to be 50 µg/mL (≈ 239 µM). Further, the “CC50, cytotoxic concentration required to reduce cell viability by 50%” value in data set [3] was 100 µg/mL (≈ 478 µM).
As to `COc1c(C)c2c(c(O)c1C/C=C(\C)CCC(=O)O)C(=O)OC2` [Myconhenolic Acid, 6-(4-hydroxy-6-methoxy-7-methyl-3-oxo-5-phthalanyl)-4-methyl-4-hexenoic acid], the IC50 in data set [4] was found to be 1.8 µg/mL (≈ 5.62 µM).
`NC(=O)c1ncn([C@@H]2O[C@H](CO)[C@@H](O)[C@H]2O)n1` [Ribavirin]: in data set [1], the “EC100 … to inhibit IPNV plaque formation by 100%” value is 1 µg/mL and the EC50 stood at 0.5 µg/mL (≈ 2.05 µM).

The record behind these values is US7652050B2, “Methods for increasing the survival of aquatic animals infected with an aquatic virus” (Laboratorio de Siagnóstico GAM S.A, priority 2001, dated 2010).
